Measured values reported in patent publication US20010044437A1, “Methods for reducing uric acid levels” (priority 2000, published 2001).
This continues a long series; more values of the same kind are listed elsewhere.

System: serum uric acid
Assay: Serum uric acid during 28-day once-daily oral dosing, placebo-controlled study in 48 subjects (Example 34)
Type: in vivo, human
Description: In another study, 48 subjects were divided into four groups, A, B, C and D, and administered the noted amount of the compound of Example 3. Each group was composed of 12 subjects of whom 9 received the compound and 3 received placebo. The non-placebo members of group A received 50 mg of compound, administered orally once a day for 28 days as a single 50 mg tablet. The non-placebo members of group B received 200 mg of compound administered orally once a day for 28 days as a single 200 mg tablet. The non-placebo members of group C received 500 mg of compound administered orally once a day for 28 days as two 50 mg tablets and two 200 mg tablets. The non-placebo members of group D received 800 mg of compound administered orally once a day for 28 days as four 200 mg tablets. The 3 placebo members of each group, received an amount of placebo, as a tablet, equivalent to the amount of test compound—50 mg placebo for group A, 200 mg placebo for group B, 500 mg placebo for group C and 800 mg placebo for group D. Each subject received a single dose of either compound or placebo for 28 days. The subjects were confined at the clinical site beginning the day before dose administration until 72 hours after the final dose administration on Day 28 and returned for an outpatient visit on Day 35.
Uric acid levels were measured prior to beginning the study (screening), on the day immediately prior to commencement of the study (day-1), and then as noted in the table. Hours indicates the time since the last dose was administered. For example, Day 7, 0 hour indicates the time the serum uric acid level at the time the dose was administered and Day 7, 2 hour indicates the uric acid level two hours after the adminstration that day. Further, the Day 30, 60 hour level is the serum uric acid level measured 60 hours (on Day 30) after the last dose was administered on Day 28. The uric acid levels are presented in mg/dL as a mean of all subjects in each group.

O=C(O)Cn1cc(Cc2nc3c(F)c(F)cc(F)c3s2)c2ccccc21 [Example 3, 3-(4,5,7-Trifluorobenzothiazol-2-yl)methyl-indole-N-acetic Acid]
Uric Acid Level (mean of all subjects in each group) (group B 200 mg orally once a day, Day 34 144 Hour after last dose on Day 28): 4.66 mg/dL
Uric Acid Level (mean of all subjects in each group) (group B 200 mg orally once a day, Day 35 (last dose Day 28)): 5.03 mg/dL
Uric Acid Level (mean of all subjects in each group) (group B 200 mg orally once a day, Day-1 (before dosing)): 5.16 mg/dL
Uric Acid Level (mean of all subjects in each group) (group B 200 mg orally once a day, Screening (before dosing)): 5.51 mg/dL
Uric Acid Level (mean of all subjects in each group) (group C 500 mg orally once a day, Day 14 0 Hour): 2.10 mg/dL
Uric Acid Level (mean of all subjects in each group) (group C 500 mg orally once a day, Day 14 0.5 Hour): 2.10 mg/dL
Uric Acid Level (mean of all subjects in each group) (group C 500 mg orally once a day, Day 14 1 Hour): 2.02 mg/dL
Uric Acid Level (mean of all subjects in each group) (group C 500 mg orally once a day, Day 14 2 Hour): 1.92 mg/dL
Uric Acid Level (mean of all subjects in each group) (group C 500 mg orally once a day, Day 14 3 Hour): 1.86 mg/dL
Uric Acid Level (mean of all subjects in each group) (group C 500 mg orally once a day, Day 14 4 Hour): 1.82 mg/dL
Uric Acid Level (mean of all subjects in each group) (group C 500 mg orally once a day, Day 14 6 Hour): 2.03 mg/dL
Uric Acid Level (mean of all subjects in each group) (group C 500 mg orally once a day, Day 14 8 Hour): 1.96 mg/dL
Uric Acid Level (mean of all subjects in each group) (group C 500 mg orally once a day, Day 14 10 Hour): 1.86 mg/dL
Uric Acid Level (mean of all subjects in each group) (group C 500 mg orally once a day, Day 14 12 Hour): 1.78 mg/dL
Uric Acid Level (mean of all subjects in each group) (group C 500 mg orally once a day, Day 14 16 Hour): 1.73 mg/dL
Uric Acid Level (mean of all subjects in each group) (group C 500 mg orally once a day, Day 14 24 Hour): 2.13 mg/dL
Uric Acid Level (mean of all subjects in each group) (group C 500 mg orally once a day, Day 21 0 Hour): 2.32 mg/dL
Uric Acid Level (mean of all subjects in each group) (group C 500 mg orally once a day, Day 28 0 Hour): 2.27 mg/dL
Uric Acid Level (mean of all subjects in each group) (group C 500 mg orally once a day, Day 28 0.05 Hour): 2.28 mg/dL
Uric Acid Level (mean of all subjects in each group) (group C 500 mg orally once a day, Day 28 1 Hour): 2.26 mg/dL
Uric Acid Level (mean of all subjects in each group) (group C 500 mg orally once a day, Day 28 2 Hour): 2.18 mg/dL
Uric Acid Level (mean of all subjects in each group) (group C 500 mg orally once a day, Day 28 3 Hour): 2.09 mg/dL
Uric Acid Level (mean of all subjects in each group) (group C 500 mg orally once a day, Day 28 4 Hour): 2.04 mg/dL
Uric Acid Level (mean of all subjects in each group) (group C 500 mg orally once a day, Day 28 6 Hour): 2.36 mg/dL
Uric Acid Level (mean of all subjects in each group) (group C 500 mg orally once a day, Day 28 8 Hour): 2.23 mg/dL
Uric Acid Level (mean of all subjects in each group) (group C 500 mg orally once a day, Day 28 10 Hour): 2.32 mg/dL
Uric Acid Level (mean of all subjects in each group) (group C 500 mg orally once a day, Day 28 12 Hour): 2.20 mg/dL
Uric Acid Level (mean of all subjects in each group) (group C 500 mg orally once a day, Day 28 16 Hour): 1.94 mg/dL
Uric Acid Level (mean of all subjects in each group) (group C 500 mg orally once a day, Day 28 24 Hour): 2.36 mg/dL
Uric Acid Level (mean of all subjects in each group) (group C 500 mg orally once a day, Day 29 48 Hour after last dose on Day 28): 2.56 mg/dL
Uric Acid Level (mean of all subjects in each group) (group C 500 mg orally once a day, Day 30 60 Hour after last dose on Day 28): 2.87 mg/dL
Uric Acid Level (mean of all subjects in each group) (group C 500 mg orally once a day, Day 31 72 Hour after last dose on Day 28): 3.64 mg/dL
Uric Acid Level (mean of all subjects in each group) (group C 500 mg orally once a day, Day 32 96 Hour after last dose on Day 28): 4.10 mg/dL
Uric Acid Level (mean of all subjects in each group) (group C 500 mg orally once a day, Day 33 120 Hour after last dose on Day 28): 4.41 mg/dL
Uric Acid Level (mean of all subjects in each group) (group C 500 mg orally once a day, Day 34 144 Hour after last dose on Day 28): 4.38 mg/dL
Uric Acid Level (mean of all subjects in each group) (group C 500 mg orally once a day, Day 35 (last dose Day 28)): 4.63 mg/dL
Uric Acid Level (mean of all subjects in each group) (group D 800 mg orally once a day, Day 14 0 Hour): 2.14 mg/dL
Uric Acid Level (mean of all subjects in each group) (group D 800 mg orally once a day, Day 14 0.5 Hour): 2.11 mg/dL
Uric Acid Level (mean of all subjects in each group) (group D 800 mg orally once a day, Day 14 1 Hour): 2.09 mg/dL
Uric Acid Level (mean of all subjects in each group) (group D 800 mg orally once a day, Day 14 2 Hour): 1.98 mg/dL
Uric Acid Level (mean of all subjects in each group) (group D 800 mg orally once a day, Day 14 3 Hour): 1.94 mg/dL
Uric Acid Level (mean of all subjects in each group) (group D 800 mg orally once a day, Day 14 4 Hour): 1.91 mg/dL
Uric Acid Level (mean of all subjects in each group) (group D 800 mg orally once a day, Day 14 6 Hour): 2.07 mg/dL
Uric Acid Level (mean of all subjects in each group) (group D 800 mg orally once a day, Day 14 8 Hour): 1.97 mg/dL
Uric Acid Level (mean of all subjects in each group) (group D 800 mg orally once a day, Day 14 10 Hour): 1.91 mg/dL
Uric Acid Level (mean of all subjects in each group) (group D 800 mg orally once a day, Day 14 12 Hour): 1.78 mg/dL
Uric Acid Level (mean of all subjects in each group) (group D 800 mg orally once a day, Day 14 16 Hour): 1.73 mg/dL
Uric Acid Level (mean of all subjects in each group) (group D 800 mg orally once a day, Day 14 24 Hour): 2.35 mg/dL
Uric Acid Level (mean of all subjects in each group) (group D 800 mg orally once a day, Day 21 0 Hour): 2.30 mg/dL
Uric Acid Level (mean of all subjects in each group) (group D 800 mg orally once a day, Day 28 0 Hour): 2.60 mg/dL
Uric Acid Level (mean of all subjects in each group) (group D 800 mg orally once a day, Day 28 0.05 Hour): 2.60 mg/dL
Uric Acid Level (mean of all subjects in each group) (group D 800 mg orally once a day, Day 28 1 Hour): 2.51 mg/dL
Uric Acid Level (mean of all subjects in each group) (group D 800 mg orally once a day, Day 28 2 Hour): 2.40 mg/dL
Uric Acid Level (mean of all subjects in each group) (group D 800 mg orally once a day, Day 28 3 Hour): 2.29 mg/dL
Uric Acid Level (mean of all subjects in each group) (group D 800 mg orally once a day, Day 28 4 Hour): 2.28 mg/dL
Uric Acid Level (mean of all subjects in each group) (group D 800 mg orally once a day, Day 28 6 Hour): 2.45 mg/dL
Uric Acid Level (mean of all subjects in each group) (group D 800 mg orally once a day, Day 28 8 Hour): 2.36 mg/dL
Uric Acid Level (mean of all subjects in each group) (group D 800 mg orally once a day, Day 28 10 Hour): 2.34 mg/dL
Uric Acid Level (mean of all subjects in each group) (group D 800 mg orally once a day, Day 28 12 Hour): 2.36 mg/dL
Uric Acid Level (mean of all subjects in each group) (group D 800 mg orally once a day, Day 28 16 Hour): 2.00 mg/dL
Uric Acid Level (mean of all subjects in each group) (group D 800 mg orally once a day, Day 28 24 Hour): 2.56 mg/dL
Uric Acid Level (mean of all subjects in each group) (group D 800 mg orally once a day, Day 29 36 Hour after last dose on Day 28): 2.78 mg/dL
Uric Acid Level (mean of all subjects in each group) (group D 800 mg orally once a day, Day 29 48 Hour after last dose on Day 28): 2.47 mg/dL
Uric Acid Level (mean of all subjects in each group) (group D 800 mg orally once a day, Day 30 60 Hour after last dose on Day 28): 3.06 mg/dL
Uric Acid Level (mean of all subjects in each group) (group D 800 mg orally once a day, Day 31 72 Hour after last dose on Day 28): 3.74 mg/dL
Uric Acid Level (mean of all subjects in each group) (group D 800 mg orally once a day, Day 32 96 Hour after last dose on Day 28): 4.53 mg/dL
Uric Acid Level (mean of all subjects in each group) (group D 800 mg orally once a day, Day 33 120 Hour after last dose on Day 28): 4.87 mg/dL
Uric Acid Level (mean of all subjects in each group) (group D 800 mg orally once a day, Day 34 144 Hour after last dose on Day 28): 4.94 mg/dL
Uric Acid Level (mean of all subjects in each group) (group D 800 mg orally once a day, Day 35 (last dose Day 28)): 5.04 mg/dL
